# In all, about 310,000 compounds went through this assay and about 2,200 (0.71%) showed an effect of 50% or more. The effect is printed as a negative number. The list shows a part of the results.
# Biological target: human ether-à-go-go-related gene (hERG) potassium channel (human, UniProt Q12809)
# Assay: primary screen, population patch clamp on CHO cells stably expressing hERG
# Chain of human ether-à-go-go-related gene (hERG) potassium channel (Q12809 whole entry, looked up): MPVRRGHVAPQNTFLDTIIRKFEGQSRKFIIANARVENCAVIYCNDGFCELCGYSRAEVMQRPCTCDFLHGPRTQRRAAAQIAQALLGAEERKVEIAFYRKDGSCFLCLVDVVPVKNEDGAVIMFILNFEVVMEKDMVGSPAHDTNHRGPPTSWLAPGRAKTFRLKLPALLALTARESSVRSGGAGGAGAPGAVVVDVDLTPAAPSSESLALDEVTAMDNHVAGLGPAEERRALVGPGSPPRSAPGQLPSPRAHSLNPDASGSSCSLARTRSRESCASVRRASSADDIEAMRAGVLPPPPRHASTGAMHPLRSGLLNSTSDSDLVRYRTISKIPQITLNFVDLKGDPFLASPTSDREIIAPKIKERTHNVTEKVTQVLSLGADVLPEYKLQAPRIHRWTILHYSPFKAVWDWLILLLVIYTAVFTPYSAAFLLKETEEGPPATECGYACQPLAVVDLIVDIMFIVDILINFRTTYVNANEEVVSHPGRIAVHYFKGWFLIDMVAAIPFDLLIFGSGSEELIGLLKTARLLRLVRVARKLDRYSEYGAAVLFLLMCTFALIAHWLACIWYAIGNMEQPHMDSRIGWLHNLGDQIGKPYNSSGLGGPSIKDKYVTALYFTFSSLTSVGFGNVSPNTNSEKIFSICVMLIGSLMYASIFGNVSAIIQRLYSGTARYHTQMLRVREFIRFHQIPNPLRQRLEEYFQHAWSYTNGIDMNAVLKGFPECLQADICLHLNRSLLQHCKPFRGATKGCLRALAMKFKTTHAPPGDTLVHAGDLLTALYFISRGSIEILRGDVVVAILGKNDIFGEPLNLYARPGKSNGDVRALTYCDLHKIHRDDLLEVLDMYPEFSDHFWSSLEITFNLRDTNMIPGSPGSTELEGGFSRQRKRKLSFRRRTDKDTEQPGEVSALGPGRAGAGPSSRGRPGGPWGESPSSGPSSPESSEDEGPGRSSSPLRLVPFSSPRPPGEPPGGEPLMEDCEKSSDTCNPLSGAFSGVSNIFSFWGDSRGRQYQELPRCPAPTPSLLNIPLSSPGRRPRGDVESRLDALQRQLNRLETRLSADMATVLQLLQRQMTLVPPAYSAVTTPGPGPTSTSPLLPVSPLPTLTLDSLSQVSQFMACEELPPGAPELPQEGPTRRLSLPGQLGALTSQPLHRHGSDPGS
row,Structure (SMILES),"hERG current change (%, negative = inhibition) at 1uM"
1,O=C(NC1CCC(O)CC1)c1ccc(-c2ccc(Cl)cc2)o1 (centres unmarked),-0.762%
2,O=C([O-])CCCNC(=O)C(c1ccccc1)c1ccccc1.[Li+],1.13%
3,CN(C(=S)NC1=CCS(=O)(=O)C1)C1CCCCC1,10.7%
4,N#Cc1ccc(CN2CCN(CC(=O)NCCc3ccc(Cl)cc3Cl)CC2)cc1,-47.3%
5,O=c1[nH]c2ccc(S(=O)(=O)NCc3ccccn3)cc2s1,16.9%
6,COc1ccccc1-c1cc2nc(C)c(CCC(=O)NCc3ccc(F)cc3)c(C)n2n1,-1.72%
7,O=C(COc1ccc(Cl)cc1)N(Cc1cccs1)C1CCS(=O)(=O)C1 (centres unmarked),-3.54%
8,Cc1c(OC(C)C(=O)O)ccc2c(-c3ccccc3)cc(=O)oc12 (centres unmarked),11.5%
9,COc1ccc2c(-c3cccnc3)cc(=O)[nH]c2c1,0.833%
10,COC(=O)C1=C(c2ccc(OC(F)(F)F)cc2)C[C@@H]2CC[C@H]1N2C(=O)NCCc1ccccc1,2.34%
11,COc1cccc(C(=O)NCC(=O)N2CCC3(CC2)NCCc2[nH]cnc23)c1OC,10.4%
12,CN(c1ccccc1C(=O)Nc1cccc(C(F)(F)F)c1)S(C)(=O)=O,8.78%
13,Cc1ccc(C(=O)COC(=O)CCCC(=O)Nc2cc(C(F)(F)F)ccc2Cl)cc1C,12.5%
14,CC1CCCCN1CCCNC(=O)c1ccc2nc(N3CCCCC3)sc2c1 (centres unmarked),-0.784%
15,Cc1nnc(NC(=O)C(C)Sc2nnc(-c3ccco3)n2C(C)C)s1 (centres unmarked),16.3%
16,COc1ccccc1NC(=O)Nc1nc(CC(=O)Nc2cc(F)ccc2F)cs1,7.89%
17,COc1ccc(Cn2c(=O)[nH]c3cc(OC)c(OC)cc3c2=O)cc1,11.7%
18,CCOC(=O)c1ccccc1NC(=O)Cn1c(=O)n(Cc2ccccc2)c(=O)c2c(C)c(C)sc21,7.49%
19,O=C(CSc1ccc2nnc(-c3cccs3)n2n1)N1CCCC1,-5.17%
20,NC(=O)c1sc2nnc(-c3ccccc3)c(-c3ccccc3)c2c1N,10.3%
21,CCCCc1ccc(NC(=O)C(=O)NCCN2CCN(C(=O)c3ccc([N+](=O)[O-])cc3)CC2)cc1,0.387%
22,CCCn1nnnc1NCc1ccc(F)cc1,7.19%

row,Structure (SMILES),"hERG current change (%, negative = inhibition) at 1uM"
1,CNC(=O)C1CC(=O)N(Cc2ccc3c(c2)OCO3)C(=Nc2ccc(OC)cc2)S1 (centres unmarked),10.1%
2,CCCNC(=O)N1[C@H]2CC[C@@H]1C(C(=O)OC)=C(c1ccc(OC)c(OC)c1)C2,6.5%
3,Cc1ccc(C(=O)CCC(=O)NC2=NCCS2)cc1,10.2%
4,O=C(COc1ccc(Cl)cc1)NCc1nnc(SCC(=O)c2ccccc2)o1,10.8%
5,CCOC(=O)C1(Cc2ccccc2)CCN(Cc2cccc3c2OCO3)CC1,1.36%
6,Cc1cc(OCC(=O)NC(C)C)ccc1Cl,10.7%
7,CCn1nc(C)c(CNC(=O)c2cc(COc3ccc(F)cc3Cl)on2)c1C,-0.535%
8,COc1ccc(-c2csc(NC(=O)CCN3C(=O)C4CC=CCC4C3=O)n2)cc1OC (centres unmarked),1.89%
9,CCN(Cc1ccccc1)C(=O)Cc1c[nH]c2ccccc12,11%
10,COC(=O)CSc1nnc(CNC(=O)c2ccccc2OC)n1C,4%
11,Cc1ccccc1OCC(=O)Nc1c2c(nn1C(C)(C)C)CS(=O)(=O)C2,0.33%
12,Cc1ccc2c(cnn2C(=O)CCC(=O)NCc2cccc(Cl)c2)c1,14.3%
13,CCc1ccccc1NC(=O)CN1CCN(C(=O)CNC(=O)c2ccc(-c3ccccc3)cc2)CC1,-7.14%
14,O=c1[nH]c2ccccc2nc1-c1c[nH]c2ccccc12,17.9%
15,CCOCCCNC(=O)CN1CCN(c2ccc(F)cc2)CC1.O=C(O)C(=O)O,-5.91%
16,O=C(Cc1ccccc1)NC(Cc1ccc(Cl)cc1)C(=O)O (centres unmarked),3%
17,c1cnc2c(c1)ccc1cccnc12,15.4%
18,CCOc1ccc(S(=O)(=O)N2CCC(C(=O)N3CCN(Cc4ccccc4)CC3)CC2)cc1,6.19%
19,COc1cc(Cl)c(C)cc1NC(=O)CNC(C)c1ccccc1OC (centres unmarked),7.79%
20,C/C(=N/OCO/N=C(\C)c1ccc(F)cc1F)c1ccc(F)cc1F,21.9%
21,CCOc1cc(C2CC(=O)Nc3cc(C)c(C)cc32)ccc1O (centres unmarked),3.52%
22,COC(=O)Cn1c(=NC(=O)c2ccc(OC)cc2)sc2cc(OC)ccc21,7.44%
